In all, about 150,000 compounds went through this assay and about 540 (0.36%) showed an effect of 50% or more. Some of the results follow.

The test concerns Plasmodium falciparum. As to the kind of experiment: Primary screen in NF54 nanoGlo assay, in single point, at 2uM, 72h; a lower Z score goes with more inhibition. The format is functional, Erythrocyte. Particulars: timepoint 72 hour.
Turning to `CCOc1ccc([C@@H]2c3cccn3CCCN2Cc2ccc(F)cc2)cc1`, the “% Inhibition” value was -5% and the Z score is recorded as 0.64.
Consider `CC[C@@H](CNc1cccc(C(=O)N(C)C)n1)N1CCOCC1`, for which the “% Inhibition” value is recorded as -1% and the Z score is listed as 0.23.
In the case of `Cn1cc([C@@H]2CCCN2Cc2noc(-c3ccccc3)n2)cn1`, the “% Inhibition” value came out at 3% and the Z score is on record as -0.49.
In the case of `CCN(CC)S(=O)(=O)c1ccc(N2CCOCC2)c(NC(=O)c2ccc(S(=O)(=O)N3CCCCCC3)cc2)c1`, the “% Inhibition” value came out at 3% and the Z score was -0.51.
Turning to `C=CCN1C(=O)C(C(=O)NC(C)(C)C)[C@H]2C[C@@]1(C)Oc1ccccc12` (stereo not given in full), the “% Inhibition” value was 1% and the Z score was -0.15.
As to `Cc1ccc(C)c(NC(=O)c2ccccc2-c2nc3ccccc3s2)c1`, the “% Inhibition” value was 11% and the Z score is given as -1.43.
`N#Cc1cnn2ccn(CC(=O)Nc3cccc(F)c3)c12`: the “% Inhibition” value was -6% and the Z score was 0.83.
With `O=S(=O)(NCCc1ccoc1)c1ccc(N2CCCCS2(=O)=O)cc1`, the “% Inhibition” value is reported as -11% and the Z score is 1.66.
For the compound `O=C1c2ccccc2C(=O)N1CCN1CCN(c2ncnc3sccc23)CC1`, the “% Inhibition” value was -13% and the Z score is listed as 1.5.
For `COc1ccc(OC)c(NC(=O)N2CCC3(CC2)Oc2ccccc2C(=O)N3Cc2ccccc2F)c1`, in that order: -9% and 1.18.
With `CC1(C)CC(NCc2n[nH]c(N)n2)CC(C)(C)C1`, the “% Inhibition” value is recorded as -8% and the Z score turned out to be 1.16.
Take `CCC(C)CN1C(=O)C(Cc2ccccc2)NC12CCN(S(=O)(=O)c1ccc(C)cc1)CC2` (stereo not given): the “% Inhibition” value was -13% and the Z score was 1.83.
For `c1ccc(-c2nc(CN3CCCCCCC3)cs2)cc1` the same measures were -10% and 1.49.
Take `C1CCC(Oc2nnc(C3CC3)s2)C1`: the “% Inhibition” value was -3% and the Z score stood at 0.63.
Take `CC(=Cc1ccccc1)CNCCNc1ncccn1`: the “% Inhibition” value is recorded as -10% and the Z score worked out at 1.03.
In the case of `Cc1cccc(CC2(O)CCN(C(=O)c3cc[nH]c(=O)c3)CC2)c1`, the “% Inhibition” value is reported as -5% and the Z score is 0.97.
Take `O=C1COc2ccc(Cl)cc2N1Cc1nc(-c2ccc(S(=O)(=O)N3CCCC3)cc2)no1`: the “% Inhibition” value is given as -8% and the Z score was determined as 1.23.
For `O=S(=O)(c1cccc(Cl)c1F)N(Cc1ccccn1)C1CC1` the same measures were 13% and -1.93.
For `CN1CCN(C(=O)CCNS(=O)(=O)c2cccc(F)c2F)CC1` the same measures were -1% and 0.11.
Take `CC(=O)Nc1cc(Br)cnc1C`: the “% Inhibition” value is -6% and the Z score amounted to 0.78.
In the case of `Cc1cnc(C(=O)N2CCCN(CC3CC3)[C@H](C(C)C)C2)cn1`, the “% Inhibition” value was 10% and the Z score was -1.25.
`CCCc1nc2n(n1)C1(CCCCC1)[C@@H]1CCCC[C@@H]1N2`: the “% Inhibition” value was -17% and the Z score is 1.5.
For `CCN1CCC(N(C)CCS(=O)(=O)c2cccc(C#N)c2)CC1`, in that order: -5% and 0.52.
For `CCn1cnnc1CCNC(=O)c1cccc(C)n1` the same measures were -27% and 3.47.
As to `O=C(Cc1ccc(Cl)cc1F)NC1CC2CCC1C2` (stereo not given), the “% Inhibition” value is recorded as -20% and the Z score turned out to be 1.77.
As to `CC1=CC[C@H]2CN(C(=O)c3ccc4ncccc4c3)C[C@H]2C1`, the “% Inhibition” value is given as -15% and the Z score is reported as 1.92.
With `Cn1ccc2ccc(CN3CC[C@H](C(C)(C)O)C3)cc21`, the “% Inhibition” value was -17% and the Z score was found to be 2.26.
As to `C#CC(CC)(CC)NC(=O)Cc1cccc(C)c1`, the “% Inhibition” value turned out to be 0% and the Z score worked out at 0.
For `O=C(c1snc(O)c1Cl)N1CCO[C@H](C2CCC2)C1` the same measures were -4% and 0.77.
For `Cc1ccc(CNC(=O)[C@H]2CCc3cn[nH]c3C2)cc1`, in that order: 0% and 0.08.
Consider `CN(Cc1nnc2n1CCOCC2)C(=O)Nc1ncc(C(C)(C)C)s1`, for which the “% Inhibition” value is given as 0% and the Z score amounted to 0.05.
`O=C(Cc1ccc(O)cc1Cl)Nc1nccn1Cc1ccccc1Cl`: the “% Inhibition” value turned out to be 12% and the Z score was -1.56.
For `CC(C)Cc1cc(C(=O)N(C)Cc2cc3cc(F)ccc3[nH]2)nc(N)n1` the same measures were -9% and 1.08.
As to `CC(C)(NC(=O)C(F)(F)F)C(=O)NCc1nc(C(F)(F)F)c[nH]1`, the “% Inhibition” value was -6% and the Z score is listed as 1.27.
As to `Cc1noc(C)c1Cc1nc(-c2ccsc2)no1`, the “% Inhibition” value is given as 1% and the Z score is -0.09.
For `O=C(NC[C@H]1COc2ccccc2O1)c1ccncc1`, in that order: 3% and -0.48.
For `C[C@H]1CN(C(=O)Cc2ccc3c(c2)OCO3)CC[C@]1(O)C1CC1`, in that order: 3% and -0.36.
For `CCCN(Cc1cnc(OC)nc1)Cc1ccccc1F`, the “% Inhibition” value was -8% and the Z score came to 1.49.
Regarding `CN(C)C[C@@H]1COCCN(C(=O)Nc2cnn(Cc3cccc(F)c3)c2)C1`, the “% Inhibition” value was -6% and the Z score is listed as 1.04.
For `N/C(CS(=O)(=O)c1ccc(Cl)cc1)=N/O` the same measures were -9% and 1.18.
With `COc1c(C(=O)N2CC3(CCCCC3)[C@@H]2C(C)C)cnn1C`, the “% Inhibition” value came to 3% and the Z score is reported as -0.4.
As for `Cc1nc2c(c(N3CCCCC3)n1)CN(C(=O)c1ccc(-c3ccccc3)cc1)CC2`, the “% Inhibition” value is given as -4% and the Z score was 0.47.
With `CCCc1ccc(S(=O)(=O)N2CCN(c3c(-c4ccccc4)cnc4ncnn34)CC2)cc1`, the “% Inhibition” value is -1% and the Z score was found to be 0.05.
For `O=C(Cc1ccc(Cl)s1)NC[C@H]1CCCC[C@@H]1O`, the “% Inhibition” value is on record as -11% and the Z score was 1.7.
In the case of `CC(C)(C)CC(C)(C)NC1=NCCNC12CCN(C(=O)OC(C)(C)C)CC2`, the “% Inhibition” value was -12% and the Z score is recorded as 1.62.
`CC(C)c1nnc(CN2CCC3(CC2)C[C@H](c2ccccc2)CN(C)C3)o1`: the “% Inhibition” value is given as -6% and the Z score came to 1.18.
For `O=C(NCc1ccon1)c1cnc(Cc2c(Cl)cccc2Cl)nc1O`, in that order: 2% and -0.39.
In the case of `CC(C)[C@@]1(O)CN(CCN2CCCC2=O)C[C@@H]1C`, the “% Inhibition” value is given as -8% and the Z score came to 1.52.
With `Cc1nc(-c2cc(S(=O)(=O)N3CCC(C(=O)Nc4ccc5c(c4)OCCO5)CC3)c(C)s2)no1`, the “% Inhibition” value was -21% and the Z score came out at 1.86.
For `CCCNC(N)=NCC1CCN(C(=O)OC(C)(C)C)CC1`, the “% Inhibition” value is -8% and the Z score is 1.61.
For the compound `Cc1noc([C@@H]2CN(C(=O)c3ccoc3C)C[C@H]2C(N)=O)n1`, the “% Inhibition” value was -11% and the Z score came out at 1.64.
For the compound `Cc1ccc(Cn2ncc3c(N4CCN(c5ccccc5C)CC4)ncnc32)cc1`, the “% Inhibition” value was -11% and the Z score turned out to be 2.04.
For the compound `Cc1ccc(OCC[C@H]2CCN(C(=O)Cc3cccs3)C2)cc1`, the “% Inhibition” value is on record as -6% and the Z score came to 0.9.
Take `Cc1nn(CCO)c(C)c1CN1CCc2nocc2C1`: the “% Inhibition” value is -15% and the Z score stood at 1.63.
On to `C[C@H](NCc1c2c(nn1C)CCCC2)c1ccc(F)c(F)c1`, for which the “% Inhibition” value is -12% and the Z score came out at 1.6.
For `CCn1cc(OCCCOc2cccc(C#N)c2)cn1` the same measures were 0% and -0.04.
For `CCn1ncc(-c2cc(C(=O)Nc3ccc(F)cc3OC(F)F)c3ccccc3n2)c1C` the same measures were -1% and 0.1.
Consider `c1ccc(CN[C@H]2CC23CCCCC3)cc1`, for which the “% Inhibition” value was -3% and the Z score amounted to 0.52.
On to `O=C(Cc1noc(CNC(=O)NC2CCCCC2)n1)NC1CCCCC1`, for which the “% Inhibition” value is given as 16% and the Z score is on record as -1.99.
As for `CCc1nnc(NC[C@H](C)Oc2ccccc2OC)nc1CC`, the “% Inhibition” value is recorded as -16% and the Z score is 2.52.
Turning to `CN(Cc1cnn(C)c1)C(=O)[C@H]1CC(=O)N(C2CC2)C1`, the “% Inhibition” value was determined as 2% and the Z score is -0.29.
For `O=C1NCCN1C(=O)NCc1cnn2c1CCCC2`, the “% Inhibition” value is -10% and the Z score stood at 1.88.
Regarding `COCCN(CC(=O)N(CCc1c[nH]c2ccccc12)Cc1ccccc1)C(=O)Nc1ccc(C#N)cc1`, the “% Inhibition” value is -19% and the Z score is listed as 2.09.
With `COc1ccc([C@H](C)N[C@H]2CC[C@H](O)CC2)cc1F`, the “% Inhibition” value was -11% and the Z score stood at 1.6.
For `Cc1ccc(S(=O)(=O)Nc2nc3c(C)cc(NC(=O)c4ccc(C)c(F)c4)cc3s2)cc1`, in that order: 7% and -0.8.
Consider `O=C(Cn1c(=O)c2sccc2n(CC(=O)NC2CCCCC2)c1=O)NCc1cccs1`, for which the “% Inhibition” value amounted to 25% and the Z score was -2.87.
For `O=C(c1cccnc1)N1C[C@@H]2C[C@@H](O)CN2C2(CN(Cc3cccc(Cl)c3)C2)C1`, the “% Inhibition” value was -12% and the Z score came to 1.79.
On to `CC1CCN(c2cncnc2-n2cc(NC(=O)c3ccc(Cl)s3)cn2)CC1`, for which the “% Inhibition” value is -11% and the Z score stood at 1.23.
As to `CN1CCNC(=O)C12CCN(S(=O)(=O)c1cccc(Cl)c1)CC2`, the “% Inhibition” value is recorded as -11% and the Z score is given as 2.08.
With `CCS(=O)(=O)N1CCC[C@H](c2nnc3n2CCN(C(=O)c2ccc(OC)cc2C)C3)C1`, the “% Inhibition” value is recorded as -5% and the Z score was determined as 1.02.
As to `COc1ccc(OC)c(NC(=O)N(C)Cc2nnc(C)o2)c1`, the “% Inhibition” value came to 4% and the Z score is listed as -0.63.
For `c1csc(-c2ccc(N3CCNCC3)nn2)c1` the same measures were -15% and 1.71.
On to `CC[C@@H](c1cccnc1)N(C)Cc1ccc(C(F)(F)F)nc1`, for which the “% Inhibition” value is given as 7% and the Z score is reported as -0.94.
Take `O=c1c2ccccc2nnn1Cc1cc(Cl)c2c(c1)OCO2`: the “% Inhibition” value is -11% and the Z score is on record as 1.81.
With `COc1ccc(S(=O)(=O)N2CCN(CC3CC4C=CC3C4)CC2)cc1` (stereo not given), the “% Inhibition” value was -3% and the Z score stood at 0.41.
For `O=C(Nc1cc(F)ccc1F)c1cc2nc(-c3ccco3)cc(C(F)(F)Cl)n2n1`, the “% Inhibition” value was -13% and the Z score is 1.68.
`C#CCOc1nc(Nc2ccc(C)cc2)nc(N(c2ccccc2)c2ccccc2)n1`: the “% Inhibition” value is on record as -34% and the Z score turned out to be 3.98.
In the case of `Cc1cccc(C(=O)NCCCN(C)c2ccccc2)n1`, the “% Inhibition” value is reported as 3% and the Z score is recorded as -0.57.
With `O=C(c1ccc2c(c1)OCO2)N(CC(=O)N1CCc2sccc2C1COc1ccccc1)CC1CCCO1` (stereo not given), the “% Inhibition” value is listed as -27% and the Z score is 2.58.
For `C[C@@H](C(=O)N1CCc2ccccc21)N(C)Cc1nccn1C(F)F`, the “% Inhibition” value was -13% and the Z score was found to be 1.74.
For `Cc1cc(-c2c(C)sc(C)c2S(=O)(=O)N2CCOCC2)on1`, in that order: -8% and 1.45.
Turning to `CCC1CCCC(NC(=O)NOC)C1` (stereo not given), the “% Inhibition” value is listed as -2% and the Z score is given as 0.27.
For `O=C(NC[C@]1(O)CCCNC1)c1ccc(-c2c(O)ccc3ccccc23)cc1`, the “% Inhibition” value is on record as 1% and the Z score is -0.1.
For `COc1cccc(O[C@@H](C)CNc2ncccn2)c1`, the “% Inhibition” value is -2% and the Z score turned out to be 0.24.
Regarding `Cc1nc(-n2nc(C)c(CC(=O)N3CCN(c4cccc(C(F)(F)F)c4)CC3)c2O)sc1C`, the “% Inhibition” value is reported as -7% and the Z score was 0.92.

A word on the % Inhibition: it is the relative decrease from the control value, in per cent.
